Data reported in PubChem BioAssay AID624414 (National Center for Advancing Translational Sciences (NCATS), 2012).
Where “and” joins values, the source holds several entries; their conditions need not be identical. Equal values may be shown once. Screen size: about 410,000 compounds; about 480 (0.12%) were called active. Inconclusive means that the source gave no clear call. Such entries were picked first, then a sample of the others. No stated cut-off is given here; in the data, active means activation above about 50%; inconclusive means mostly about 30% to 49%; inactive means weaker than that.

Target: Mucolipin-1 (Homo sapiens) (UniProt Q9GZU1)
Assay: qHTS for Agonists of the Human Mucolipin Transient Receptor Potential 1 (TRPML1); further: 0% is about no effect
Conditions: TRPML1-expressing cells, Ca2+ dye fluorescence, FDSS; active compounds read high
Excerpt: Mutations of human Mucolipin transient receptor potential 1 (TRPML1) cause type IV mucolipidosis (ML4), a devastating neurodegenerative disease in young children. […] Currently, there is no treatment for ML4. […] Under physiological conditions, TRPMLs regulate membrane trafficking by transducing information about PI(3,5)P2 levels into changes in juxtaorganellar Ca2+, thereby triggering membrane fusion/fission events in the late endocytic pathways (endolysosomal trafficking). In addition, TRPML1 mediates release of Fe2+ from late endosomes and lysosomes, which is essential for cellular iron metabolism. Thus, impaired ion (Ca2+ and Fe2+) homeostasis underlies lysosomal dysfunction and ML4 phenotypes. In ML4 cells, the problem is twofold. First, defective Ca2+-dependent membrane trafficking due to TRPML1-deficiency causes accumulation of lipids and other bio-materials in the lysosome. The second strike comes from the lysosomal iron overload (due to impairment of TRPML1's Fe2+ conductivity), which converts the accumulated materials into the nondegradable (resistant to lysosomal degradation) lipofuscin (also called aging pigment) in the lysosome. Lipofuscin accumulation dramatically compromises the functions of lysosomes.
Niemann-Pick type C (NPC) disease is another lysosome storage disease (LSD) with severe neurodegeneration during the childhood. Currently, there is no cure for NPC. […] Thus, TRPML1 is likely to be an essential regulator of lysosome ion homeostasis. We specifically hypothesize that stimulating TRPML1's Fe2+/Ca2+ channel activity in the lysosome using synthetic agonists can alleviate neurodegeneration associated with ML4 or NPC.
To this end, a high throughput screen was developed in a miniaturized format to screen against the Molecular Libraries Small Molecule Repository (MLSMR) to find small molecules that act either as inhibitors or agonist against the TRPML1 channel.
NIH Chemical Genomics Center [NCGC]
NIH Molecular Libraries Probe Centers Network [MLPCN]
Assay Submitter (PI): Haoxing Xu, University of Michigan Ann Arbor
TRPML1-DL cells are dissociated from flasks, counted and, brought up to a density of 500,000 cells per mL of media containing a 1X Tet inducer. Using a Multidrop Combi, 3uL of this cell solution is dispensed to each well of a 1536 TC treated, black, clear bottom hi base plate for a final cell density of 1,500 cells per well. The assay plates are incubated overnight (approximately 16 hours) at 37 degrees C and 5% CO2. Using a Multidrop Combi, 2uL of ABD Ca8 no wash dye plus quencher is added to each well. The assay plates incubate at room temperature in the dark for 45-90 minutes. The assay plate is read on the FDSS using the following protocol: 10 second baseline read, 23nL of compounds and controls are added using 1536 pintool, agonist read for 110 seconds, 1 uL EC80 addition (4uM final 54-4 diluted in media), antagonist read for 110 seconds.

Chain of UniProt Q9GZU1 (Q9GZU1 whole entry, looked up): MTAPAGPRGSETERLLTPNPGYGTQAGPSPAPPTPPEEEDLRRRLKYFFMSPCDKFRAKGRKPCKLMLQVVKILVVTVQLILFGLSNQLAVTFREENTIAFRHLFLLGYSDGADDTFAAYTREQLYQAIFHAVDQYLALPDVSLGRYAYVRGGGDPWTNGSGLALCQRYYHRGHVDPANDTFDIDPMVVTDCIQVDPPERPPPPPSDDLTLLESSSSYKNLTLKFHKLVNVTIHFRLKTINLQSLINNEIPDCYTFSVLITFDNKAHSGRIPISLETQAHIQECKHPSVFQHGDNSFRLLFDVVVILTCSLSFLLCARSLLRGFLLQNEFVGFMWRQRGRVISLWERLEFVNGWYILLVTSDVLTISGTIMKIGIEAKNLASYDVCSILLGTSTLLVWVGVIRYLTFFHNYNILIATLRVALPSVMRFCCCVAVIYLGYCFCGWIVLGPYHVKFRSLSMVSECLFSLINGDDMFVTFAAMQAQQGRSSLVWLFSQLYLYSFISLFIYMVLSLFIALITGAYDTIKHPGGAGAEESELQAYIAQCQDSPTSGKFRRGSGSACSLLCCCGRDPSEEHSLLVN

SMILES	activation
CCOC(=O)C1CCN(c2ncnc3c2c(-c2ccccc2)cn3-c2ccc(Cl)cc2)CC1	inconclusive: 37.5%
COC(=O)c1[nH]c2ccccc2c1NC(=O)CN1CCC(C(N)=O)(N2CCCCC2)CC1	inactive: 0.177%
COc1ccc(/C=C2\CC/C(=C\c3ccc(OC)cc3OC)C2=O)c(OC)c1	inconclusive: 30.6%
Cc1ccc(C)c(N2CCN(Cc3nnnn3C3CCCCC3)CC2)c1	inconclusive: 31.6%
CCC(CC)=NNc1cccc([N+](=O)[O-])c1	inactive: 1.22%
CCn1nc(-c2ccccc2)c2nc3ccccc3nc21	inconclusive: 42.8%
Cc1cc(C(F)(F)F)c(C#N)c(SCC(=O)Nc2nc3ccccc3s2)n1	inconclusive: 32.6%
CSc1ncc(Cl)c(C(=O)Nc2ccc(S(=O)(=O)N3CCC(C)CC3)cc2)n1	inactive: -0.619%
Cc1cc(C(=O)N2CCN(c3ccccc3F)CC2)c2c(C)nn(-c3ccccc3)c2n1	inconclusive: 45.7%
CC(C)(C)c1ccccc1NC(=O)CN1C(=O)NC2(CCCCCC2)C1=O	inactive: 0.474%
COCCn1c2nc(=O)n(-c3ccccc3)c(=O)c-2nc2ccccc21	active: 58.9%
CC1(C)C(=O)C=CC(=O)C(C)(C)C(=O)C=CC(=O)C(C)(C)C2=CC=C(O2)C(C)(C)C(=O)C=CC1=O	inconclusive: 45.2%
Cc1cc2c(cc1C)N(C(=O)CN1C(=O)c3ccccc3C1=O)C(C)(C)c1ssc(=S)c1-2	inconclusive: 38.4%
O=c1oc(-c2cccc(C(F)(F)F)c2)nn1-c1ccc(C(F)(F)F)cn1	inactive: 0.955%
COc1cc(-c2n[nH]c(=S)n2/N=C/c2cccn2C)cc(OC)c1OC	inconclusive: 38%
COC(=O)C1=C(C)N(Cc2ccccc2)C(=S)N[C@H]1c1cccc(F)c1	inconclusive: 39%
O=C(CSc1nc(=O)[nH]c2c1CCCC2)Nc1ccccc1C(F)(F)F	inactive: -0.622%
COc1ccc(OC)c(C(c2nnnn2CCc2ccccc2)N2CCN(c3ccccc3)CC2)c1 (stereo unspecified)	active: 50.8%
Cc1cc(C)nc(/N=C(\N)Nc2cccc(OCc3ccccc3)c2)n1	inconclusive: 43.6%
CN1CCN(S(=O)(=O)c2ccc(N(C)Cc3ccc(C(F)(F)F)cc3)c([N+](=O)[O-])c2)CC1	inconclusive: 42.6%
Cc1csc(NC(=O)c2sc3nc(-c4cccs4)ccc3c2N)n1	inconclusive: 44%
CN(C)c1ccc(/C=C/c2nccc3ccccc23)cc1	inconclusive: 36.8%

SMILES	activation
CC(C)c1nnc(N2C(=O)C(O)=C(C(=O)c3cccs3)C2c2ccccc2)s1 (stereo unspecified)	inconclusive: 34.9%
Cc1c(C(=O)Nc2ccc3nc(N4CCOCC4)sc3c2)oc2ccccc12	active: 54.7%
CN(C)c1ccc(/C=C/c2ccnc3ccc(I)cc23)cc1	inconclusive: 35.8%
Cc1ccc(N2CCN(S(=O)(=O)c3ccc(F)c(C)c3)CC2)c(C)c1	active: 50.4%
CCNC(=S)N1CCN(S(=O)(=O)/C=C/c2ccccc2)CC1	inactive: 1.72%
CCCCn1nnnc1C(c1ccccc1OC(F)(F)F)N1CCN(C/C=C/c2ccccc2)CC1 (stereo unspecified)	inconclusive: 33.9%
O=S(=O)(c1ccc(Cl)s1)N1CCN(C/C=C/c2ccccc2)CC1	inconclusive: 31.1%
CCCN1CCc2c(sc(NC(=O)c3ccc(S(=O)(=O)N(C)c4ccccc4)cc3)c2C(N)=O)C1	inactive: 26.7%
C[C@@H](C(=O)Nc1ccc2ccccc2c1)[C@@H]1C[C@@]1(C)[C@@H](NC(=O)c1cnccn1)c1ccccc1	inactive: -0.389%
CC(C)CC1=NN2C(=N)/C(=C\c3coc4ccccc4c3=O)C(=O)N=C2S1	active: 68.7%
CC(C)(C)c1ccc(C(=O)Nc2onc3c2CCCC3)cc1	inconclusive: 44.2%
Cc1ccc(C(=O)NCC(=O)NC23CC4CC(CC(C4)C2)C3)cc1	inactive: -0.0237%
COc1ccc2c(c1)C/C(=C\c1ccc(N(C)C)cc1)C2=O	active: 71.6%
Cc1ccc(O)c(NC(=S)NC(=O)COc2ccc(Br)cc2)c1	inconclusive: 34.7%
COc1ccccc1N1CCN(Cc2nc(N)nc(Nc3ccc(C)c(Cl)c3)n2)CC1	inactive: 2.09%
CC(C)CSC1=NSC2=NC(=O)/C(=C\c3coc4ccccc4c3=O)C(=N)N12	inconclusive: 31.3%
C=CCN1C=CC(=C/C=C(/C#N)C(=O)OCC)C=C1	inconclusive: 35.4%
Cc1ccc(C)c(N2CCN(C(=O)c3cnn(C(C)(C)C)c3C3CCN(C(=O)OC(C)(C)C)CC3)CC2)c1	active: 50.8%
COc1cc(C2CC(=O)N3CN(Cc4ccco4)CSC3=C2C#N)ccc1OCc1ccccc1 (stereo unspecified)	inactive: -0.411%
CCCCNC(=O)[C@@H]1CC=C[C@@H]2CCN(C3CCCCC3)C(=O)[C@@H]21	inactive: -0.914%
COc1cc(-c2noc(C)c2/C=C/c2cccc([N+](=O)[O-])c2)cc(OC)c1OC	inactive: -0.295% and inactive: 0.145%
COc1cc(NCCCC(C)N)c2ncccc2c1 (stereo unspecified)	inconclusive: 35.2%

SMILES	activation
CCN(CCCN(C)C)c1ccc(/C=C/c2ccnc3ccccc23)cc1	inconclusive: 49.4%
CCc1ccc(/C=C/C(=O)c2ccc(S(=O)(=O)N(C)C)cc2)cc1	inconclusive: 33.7%
Cc1ccc(C(=O)CSc2nc(N)cc(=O)[nH]2)cc1	inactive: -0.286%
CCN(CC)c1ccc(/C=C/c2ccnc3ccccc23)cc1	active: 54.4%
Nc1ncnc2nnsc12	inactive: 0.38%
Cc1ccccc1C(=O)N=c1ccn(-c2nc3ccccc3nc2NS(=O)(=O)c2ccc(F)cc2)cc1	inactive: 14.7%
Cc1cccc(C)c1C(=NCCN(C)C)c1ccccc1	inactive: 1.82%
CC1CC(C)CN(C2CCCCC2NS(=O)(=O)c2ccc(Cl)cc2)C1 (stereo unspecified)	inconclusive: 38.2%
O=C(O)c1ccc(/C=N/n2cc(-c3ccccc3)[nH]c2=S)cc1	inactive: -0.914%
c1ccc2c(c1)nc(N1CCOCC1)c1nnnn12	inactive: 0.0262%
CNc1nc(NCCCN2CCCC2=O)c2sccc2n1	inconclusive: 30.3%
O=C(NCCC(F)(F)F)C1Cc2c(-c3ccccc3Oc3ccccc3)ccnc2O1 (stereo unspecified)	inconclusive: 40.3%
CC1=CC(C)(C)N(C(=O)CN2C(=O)c3ccccc3C2=O)c2ccc(C)cc21	active: 61.4%
N#Cc1cc(C(=O)c2cc(F)ccc2O)cn(-c2nccs2)c1=O	active: 124%
COc1ccc(NC(=O)C(=O)c2cc(C)n(-c3ccc(C)cc3)c2C)cc1Cl	inconclusive: 37.9%
CC(C)(C)OC(=O)N(Cc1ccccc1)Cc1ccccc1OCc1cccc(NC(=O)C2CCC2)c1	inactive: 2.94%
CN(C)c1ccc(/C=C/c2ccnc3c(Cl)cccc23)cc1	active: 54.2%
O=S(=O)(N/N=C\c1ccc(-c2ccccc2Cl)o1)c1ccccc1	inactive: 1.24%
COc1cccc(NC(=O)/C(C#N)=C/c2ccc(-c3ccc(C)cc3)o2)c1	inconclusive: 42.3%
CCOC(=O)/C(=C/C=C1\Sc2ccccc2N1CC)C(C)=O	active: 80.1%
CCN(CC)Cc1c(O)c(Cl)cc2c3c(c(=O)oc12)CCCC3	inconclusive: 37%
Cc1cc2oc(=O)cc(CN3CCN(c4ccccc4)CC3)c2cc1Cl	inactive: -0.504%

SMILES	activation
CCOC(=O)c1sc(NC(=S)NC(=O)CC(C)C)cc1C	inactive: -0.827%
C=CCN1C(=O)c2cccc3c(N4CCCCC4)ccc(c23)C1=O	active: 55.2%
COC(=O)[C@@H](c1ccccc1)N(C)S(=O)(=O)c1cccc(S(=O)(=O)N(C)[C@@H](C(=O)OC)c2ccccc2)c1	active: 73.6%
Cc1cc(C(C)(C)C)oc1C(=O)N(CC(=O)NC1CCCC1)c1c(C)cccc1C	inconclusive: 43.8%
Cc1cccc(NS(=O)(=O)c2cc3c(cc2C)NC(=O)CO3)c1	inactive: 0.497%
CCN(CC)C(=O)C(=O)Nc1ccc(Oc2ccccc2)cc1	inconclusive: 44.5%
Cc1cc(Cl)ccc1OCC(=O)Nc1ccccc1N1CCOCC1	active: 75.5%
COc1ccc(S(=O)(=O)N2CCN(Cc3ccc(Cl)cc3)CC2)cc1	inactive: 5.56%
CCCCn1nnnc1C(c1ccccc1)N1CCN(c2cc(C)ccc2C)CC1 (stereo unspecified)	inconclusive: 37.6%
Cc1c(C(=O)Nc2cccc(C(F)(F)F)c2)oc2ccc3c(c12)C(=O)CC(C)(C)O3	inconclusive: 42.5%
CCCCn1nc(C(=O)Nc2cc(C(F)(F)F)ccc2N2CCOCC2)ccc1=O	inconclusive: 48.5%
CCOc1ccccc1CN1CCc2nc(N3CCN(C)CC3)ncc2C1	inactive: -0.242%
CC(C)c1nc(Cl)c(C#N)c2c1CSC(C)(C)C2	inconclusive: 38.3%
CCN(CC)CCOc1ccc(Br)cc1	inactive: 0.603%
CCN(CC)CCCNc1ccc2ncn3c4ccc(O)cc4c(=O)c1c23	inconclusive: 36.8%
Cc1ccc(N2C(N)=C(C#N)C(c3ccsc3)C3=C2CC(C)(C)CC3=O)cc1 (stereo unspecified)	active: 57.2%
CCOc1ccc(NC(=O)CN(C)C(=O)c2cccnc2Sc2ccc(C)c(C)c2)cc1OCC	inactive: 0.388%
Cc1ccc(S(=O)(=O)n2nccc2-c2c(-c3ccc(Cl)cc3)noc2C)cc1	inconclusive: 43.2%
COc1ccc(CCNc2ncnc3c2c(-c2ccccc2)cn3-c2ccc(F)cc2)cc1OC	active: 63.9%
Cc1cc(C)c(-c2noc(C(=O)OC(C)(C)C)c2C(=O)OC(C)(C)C)c(C)c1	active: 52.9%
